# In ChEMBL document CHEMBL4888484, “Replenishing the malaria drug discovery pipeline: Screening and hit evaluation of the MMV Hit Generation Library 1 (HGL1) against asexual blood stage Plasmodium falciparum ,using a nano luciferase reporter read-out” (2022):
# In all, about 150,000 compounds went through this assay and about 540 (0.36%) showed an effect of 50% or more. This is one part of the list.
# Test system: Plasmodium falciparum
# Experiment: Primary screen in NF54 nanoGlo assay, in single point, at 2uM, 72h; a lower Z score goes with more inhibition
# Format: functional, Erythrocyte
# Conditions: timepoint 72 hour
Compound,% Inhibition [%],Z score
COc1ccccc1-n1ncnc1-c1c[nH]c(=O)c(Cl)c1,-17,2.23
Cc1onc(C(=O)N2CC[C@H]3[C@H](CCC(=O)N3CCC(C)C)C2)c1CO,-5,0.64
CC(C)S(=O)(=O)c1c(Cl)cccc1NS(=O)(=O)c1ccc2c(c1)C[C@H](C)O2,-11,0.99
COc1ccc(-c2cc(C(=O)N3C[C@@H]4C[C@@H](C3)c3cccc(=O)n3C4)c3ccccc3n2)cc1,-3,0.45
CCOCCOc1cc(C)ccc1CN=C(NC)NC,2,-0.36
Cc1ccc(C(=O)N2CCN(c3ncccc3C(N)=O)CC2)cc1NC(=O)C1CCCC1,-5,0.68
C[C@H]1CCN(C(=O)CC(N)=O)CC1(F)F,-3,0.33
CCc1ncc(C(=O)NCc2ccnc(C(F)(F)F)c2)s1,-8,1.16
c1ccc2[nH]c(CN3CCC(c4nnc[nH]4)CC3)nc2c1,-16,2.34
O=C(Cc1cccc(Cl)c1)NC[C@H](O)CN1CCCCC1,6,-1.1
N#Cc1ccc(OCc2nnnn2C2CC2)c(Cl)c1,2,-0.17
CCCc1nc(Cc2cccs2)nn1-c1cc(S(N)(=O)=O)ccc1F,1,-0.15
O=C(NCc1cccnc1)Nc1nccs1,1,-0.24
Cn1c(CN2CCOCC2)cc(=O)n(C)c1=O,-15,1.65
O=C1CNC(=O)N1CCCC(=O)N1CCCCCc2ccccc21,-19,2.02
Cn1cc(-c2ccc(C(=O)N3CCC(F)(F)CC3)cc2)cn1,-7,1.3
CCCNC(=O)N1CCCN(c2nc(C3CC3)nc3c2cnn3-c2cccc(Cl)c2)CC1,-20,2.11
O=C(c1cc(-c2ccccc2)n[nH]1)N1C[C@@H](CN2CCOCC2)[C@@H](CO)C1,-14,2.55
CN1CCC[C@@H]1CCNC(C)(C)c1cn(-c2ccccc2)nn1,0,-0.05
Cc1oc(-c2ccc(C(=O)N3CCN(c4ccccc4)CC3)cc2)nc1CN1CCC(C)CC1,42,-3.95
c1ccc(CNc2ccc(-c3nc4ccccc4o3)cc2)cc1,-11,1.52
c1cc2c(cc1-c1nnc(NCc3csc(C4CC4)n3)o1)OCO2,-11,1.3

Compound,% Inhibition [%],Z score
CNc1snc(C)c1C(=O)N1CCN(Cc2ccc(-c3ccccc3F)s2)CC1,3,-0.65
O=C(Nc1cccc(-c2noc(C3CCC3)n2)c1)c1ccc2c(c1)OCO2,-4,0.66
O=C(NCCC(=O)N1CCN(C2CS(=O)(=O)CC2O)CC1)c1cc(F)ccc1Br (stereo not given),-2,0.46
CCOc1ncccc1NC(=O)c1sc(-c2nnc[nH]2)nc1C,-8,0.71
C[C@H](NCC(C)(O)c1ccc(Br)cc1F)C(N)=O (stereo not given in full),-20,3.91
CCn1c(=O)c(-c2nc(-c3ccc4c(c3)OCO4)no2)c(O)c2ccccc21,-7,0.96
CCN(C(C)=O)c1nc2ccccc2n(CC(=O)Nc2ccccc2)c1=O,-3,0.5
O=C(Cc1cccnc1)NC[C@H]1CCCN(c2ncccc2F)C1,2,-0.31
O=C(NC[C@H]1COCc2nc3ccccc3n21)c1cncnc1,16,-1.84
O=C(NCc1ncc(Br)cn1)N1CC2(CCCCC2)C1,-7,0.95
COc1ccc2c(c1)C1(CC1)CN(c1cncc(C#N)n1)C2,-2,0.46
CC1NC2(C(=O)N(CC(=O)N3CCOCC3)c3ccccc32)C2C(=O)N(c3cccc4ccccc34)C(=O)C12 (stereo not given),-1,0.09
COc1ccc(-c2cc3ncc(S(=O)(=O)c4ccccc4)c(-c4ccc(C)cc4)n3n2)cc1,30,-3.87
CCCN(Cc1ccncc1)Cc1cnc2c(-c3ccccc3)cnn2c1,14,-1.92
O=C(NCc1ccc(F)cc1)N1CC[C@@H]2CN(Cc3ccccc3)[C@@H]2C1,-14,1.78
NCc1ccc(C(=O)N(CCc2ccc(F)cc2)C2CCCC2)o1,10,-1.84
CCOc1ncccc1CNC(=O)C[C@H]1CCOc2ccccc21,-12,1.33
O=C(Nc1cccc(CNc2nc3ccccc3o2)c1)c1ccccn1,-13,1.61
CS(=O)(=O)N1CCN(C(=O)c2cc3c(s2)CCCCCC3)CC1,-21,1.92
c1cc2c(cc1OC[C@H]1CCCNC1)CCC2,-2,0.3
Cc1nc(NC(=O)CS(=O)(=O)C(C)C)ccc1Br,-3,0.39
COCc1noc(CCNC(=O)[C@@H](c2ccc3c(c2)OCO3)N(C)C)n1,-5,1

Compound,% Inhibition [%],Z score
Nc1ccc(-c2noc([C@H]3CCO[C@@H]3c3cccnc3)n2)cc1,-4,0.79
COc1ccnc(N2CCC[C@H]2c2cnn(C)c2)n1,6,-0.61
O=C(Nc1scc(-c2ccccc2)c1C(=O)N1CCCCC1)c1ccccc1,0,0.03
Cc1cc(C)n(C[C@H](C)NCCc2csc(-c3ncccn3)n2)n1,-8,1.59
Cc1nn(C)cc1Nc1nnc(Cn2nc(C(F)(F)F)c(Cl)c2C)s1,-45,5.31
CCCCn1nc(C)nc1-c1cccn1C1CC1,-19,1.91
CNC(=O)CN1CCCN(Cc2ccccc2)c2ccccc21,1,-0.2
Cc1ccc(N2CCN(C(=O)c3cc(C)n4nccc4n3)CC2)cc1,-5,0.82
Cc1ccccc1S(=O)(=O)N1CCN(c2c(C)n(-c3ccccc3)c(=O)n(CC(C)C)c2=O)CC1,37,-1.3
COc1cccc(NC(=O)[C@@H]2Cn3cccc3C(=O)N2C)c1,2,-0.3
Cc1nc(-c2cccc(NC(=O)c3ncccn3)c2)cs1,-26,4.83
Cc1cccc(C)c1Cn1cc2c(n1)[C@@H](N)CCC2,6,-0.89
Cc1ccc2nc(C=Cc3c[nH]nc3C(C)(C)C)ccc2c1,-3,0.4
CC[C@@H]1NC(=O)N(Cc2c(Cl)oc3ccccc23)C1=O,-1,0.1
C#CCN(C(=O)[C@H](C)OC1CCCCCC1)c1nccs1,-10,1.43
C=CCC1(CC=C)CCCCN1C(=O)Cc1ccncc1,-4,0.41
CN1CCN(c2ncnc3c2ccc(=O)n3C2CC2)CC1,-8,1.35
CCn1ccnc(N2CCN(S(C)(=O)=O)c3ccccc3C2)c1=O,-15,2.8
Cc1ccccc1-n1c(=O)n(C2CCCCC2)c(=O)c2c1ncn2Cc1ccccc1,-1,0.09
Cc1noc(C)c1CN(C)C(=O)C(=O)Nc1cccc2c1CCCC2,-4,0.59
Cc1nn(-c2ccc(C(=O)N3CCN(c4ccccc4)CC3)cc2)c2c1C(=O)CCC2,-18,1.63
Cc1nc(CCNC(=O)c2cnc(C(C)(C)C)nc2O)sc1Cl,-7,1.05

Compound,% Inhibition [%],Z score
Cc1c(CN(C)CCOCC(C)C)cnn1C,-2,0.25
CN(CC(C)(C)O)c1ncc(Br)cn1,-13,1.96
CC(CS(=O)(=O)c1ccccc1)NC1CCOc2ccccc21 (stereo not given),-3,0.47
CC(C)c1nc2cc(N(C)C(=O)CCc3ccc(Cl)cc3)ccc2o1,-19,1.76
CC1CN(C(CNCc2cccnc2)c2cccs2)CCO1 (stereo not given),1,-0.08
CC(C)C(=O)N(Cc1ccc(-c2ccc(Cl)cc2)o1)[C@H]1CCS(=O)(=O)C1,1,-0.15
C=CCN1CC[C@@H](N2CCC(C)CC2)CCC1=O,-5,0.55
c1ccc2c(c1)OC[C@H](CN1CCc3[nH]ncc3C1)O2,4,-0.52
CNS(=O)(=O)c1ccc(C#N)c(F)c1,-1,0.13
N#CC1(NC(=O)[C@H]2CC[C@H](c3ccccc3)C2)CCN(Cc2ccccc2)CC1,-6,1.01
CS(=O)(=O)N[C@H]1CC12CCN(C(=O)c1ccccc1)CC2,-7,0.9
COCCn1cc(C(=O)NC2CCCCCCC2)c(=O)c(C(=O)N2CCC(C)CC2)c1,-2,0.23
O=C(Cc1ccccc1)Nc1ccc(N2CCCN(Cc3ccc(Cl)cc3)CC2)nc1,-5,0.75
N#Cc1ccc(C(=O)N[C@@H]2COCC[C@@H]2Oc2cccc(F)c2)cn1,-9,0.95
O=C1N[C@H]2C[C@@H](C(=O)NC[C@H]3O[C@H](CCOc4ccccc41)CC[C@@H]3O)N(C1CCCC1)C2,-15,1.99
OC[C@H]1CCCN1c1cc2c(nn1)CCC2,-30,3.82
CCOc1ncccc1CNC(=O)CN1C(=O)COc2ccc(Cl)cc21,2,-0.36
CNCc1cc(Br)ccc1OC,-7,0.92
NC(=O)Cc1ccc(OCc2noc(C(=O)NCc3ccncc3)n2)cc1,30,-3.44
